To fix the notation:
B1: Caulobacter ParB omega fusion; a variant is named by its letters at X, in order, B8GW30 (parent)
chain: MESVVVGEPGMSEGRRGLGRGLSALLGEVDAAPAQAPGEQLGGSREAPIEILQRNPDQPRRTFREEDLEDLSNSIREKGVLQPILVRPSPDTAGEYQIVAGERAWRAAQRAGLKTVPIMVRELDDLAVLEIGIIENVQRADLNVLEEALSYKVLMEKFERTQENIAQTIGKSXSHVANXMRLLXLPDEVQSYLVSGELTAXHARAIAAAADPVALAKQIIEGGLSVRETEALARKAPNLSAGKSKGGRPPRVKDTDTQALESDLSSVLGLDVSIDHRGSTGTLTITYATLEQLDDLCNRLTRGI

Over roughly 81,000 sequences, “one-hybrid fitness for binding NBS DNA” has its median near -0.1; the highest 2% begin near 0.36. The list shows a part of the results. Some results are limits rather than exact numbers.

Variants of B1 are the subject of the experiment. The experiment can be described thus: one-hybrid fitness for binding NBS DNA (the Noc-binding site; scaled: cognate 1, non-cognate 0); higher = stronger binding. Conditions: with NBS DNA site. The gist of the method: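 Values were rescaled so that cognate is 1 and non-cognate is 0. Each is a fitness, the log change in a variant's read ratio to wild type from Illumina reads of plasmids before and after selection, with three replicate libraries pooled and variants under 10 reads dropped. Selection of the Caulobacter ParB libraries, four specificity codons randomised, used E. coli USO with a HIS3 reporter, site 19 bp from the promoter, on M9-minus-histidine with 0.1 mM IPTG and 5 mM 3-AT for 48 hours at 37°C.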
On to LDYM, for which the “one-hybrid fitness for binding NBS DNA” value is no more than 0.2. Take GHRT: the “one-hybrid fitness for binding NBS DNA” value is no more than 0.2.

Consider LLTM, for which the “one-hybrid fitness for binding NBS DNA” value was no more than 0.2. As for RQDY, the figure is no more than 0.2; as for HWRR, no more than 0.2. Take SGGT: the “one-hybrid fitness for binding NBS DNA” value is no more than 0.2. GPER: the “one-hybrid fitness for binding NBS DNA” value is no more than 0.2. As for GGKR, the figure is no more than 0.2; as for EFTE, no more than 0.2.

For VDSC, the “one-hybrid fitness for binding NBS DNA” value was no more than 0.2.

Take LQRY: the “one-hybrid fitness for binding NBS DNA” value was no more than 0.2. PTAQ: the “one-hybrid fitness for binding NBS DNA” value was no more than 0.2. As for KSPP, the “one-hybrid fitness for binding NBS DNA” value was no more than 0.2. For the variant AYVV, the “one-hybrid fitness for binding NBS DNA” value was no more than 0.2. For the variant TCDY, the “one-hybrid fitness for binding NBS DNA” value was no more than 0.2. Take QTCP: the “one-hybrid fitness for binding NBS DNA” value is no more than 0.2.

Regarding VYTR, the “one-hybrid fitness for binding NBS DNA” value is no more than 0.2. Then KHNY, with no more than 0.2; and RRHL, with no more than 0.2.

Regarding SKYF, the “one-hybrid fitness for binding NBS DNA” value was no more than 0.2.

Consider DDML, for which the “one-hybrid fitness for binding NBS DNA” value was no more than 0.2. Consider GCNM, for which the “one-hybrid fitness for binding NBS DNA” value is no more than 0.2. With VGGT, the “one-hybrid fitness for binding NBS DNA” value was no more than 0.2. As for IAKM, the “one-hybrid fitness for binding NBS DNA” value was no more than 0.2. On to YRGN, for which the “one-hybrid fitness for binding NBS DNA” value is no more than 0.2. As for TGLC, the figure is no more than 0.2; as for LTPD, no more than 0.2; as for HLPY, no more than 0.2. Regarding DYHT, the “one-hybrid fitness for binding NBS DNA” value is no more than 0.2. On to HAYM, for which the “one-hybrid fitness for binding NBS DNA” value was no more than 0.2.

For ASLM, the “one-hybrid fitness for binding NBS DNA” value was no more than 0.2.

Regarding CFND, the “one-hybrid fitness for binding NBS DNA” value is no more than 0.2.

PTSP: the “one-hybrid fitness for binding NBS DNA” value was no more than 0.2. Regarding QMVC, the “one-hybrid fitness for binding NBS DNA” value is no more than 0.2. As for YDRW, the figure is no more than 0.2; as for AEPG, no more than 0.2; as for QDMT, no more than 0.2. As for YKCT, the “one-hybrid fitness for binding NBS DNA” value was no more than 0.2. As for QFRR, the figure is 0.441; as for STHT, no more than 0.2.

For NEQT, the “one-hybrid fitness for binding NBS DNA” value was no more than 0.2. Turning to IRLL, the “one-hybrid fitness for binding NBS DNA” value was no more than 0.2. Consider KQNR, for which the “one-hybrid fitness for binding NBS DNA” value is 0.242. On to AKHL, for which the “one-hybrid fitness for binding NBS DNA” value was no more than 0.2. In the case of QGWG, the “one-hybrid fitness for binding NBS DNA” value was no more than 0.2. As for SERY, the “one-hybrid fitness for binding NBS DNA” value is no more than 0.2.

In the case of HATK, the “one-hybrid fitness for binding NBS DNA” value is no more than 0.2.

KKQA: the “one-hybrid fitness for binding NBS DNA” value is no more than 0.2.

As for KTPW, the “one-hybrid fitness for binding NBS DNA” value is no more than 0.2.

Consider PRTA, for which the “one-hybrid fitness for binding NBS DNA” value was no more than 0.2. As for WSFG, the “one-hybrid fitness for binding NBS DNA” value is no more than 0.2.

Regarding NVPC, the “one-hybrid fitness for binding NBS DNA” value was no more than 0.2. In the case of TNMR, the “one-hybrid fitness for binding NBS DNA” value is no more than 0.2.

As for YGRH, the “one-hybrid fitness for binding NBS DNA” value was no more than 0.2. As for THLP, the “one-hybrid fitness for binding NBS DNA” value was no more than 0.2. Regarding VYEP, the “one-hybrid fitness for binding NBS DNA” value was no more than 0.2. On to IPGI, for which the “one-hybrid fitness for binding NBS DNA” value is no more than 0.2.

On to QTRC, for which the “one-hybrid fitness for binding NBS DNA” value turned out to be 0.548. For TFKR, the “one-hybrid fitness for binding NBS DNA” value was no more than 0.2. As for PGKI, the figure is no more than 0.2; as for RVFT, 0.271. For the variant RYFV, the “one-hybrid fitness for binding NBS DNA” value is no more than 0.2.

In the case of TWYM, the “one-hybrid fitness for binding NBS DNA” value was no more than 0.2. MPNK: the “one-hybrid fitness for binding NBS DNA” value was no more than 0.2. In the case of LDLD, the “one-hybrid fitness for binding NBS DNA” value was no more than 0.2. For the variant IMNW, the “one-hybrid fitness for binding NBS DNA” value was no more than 0.2.

Turning to GDER, the “one-hybrid fitness for binding NBS DNA” value is no more than 0.2. For SFQM, the “one-hybrid fitness for binding NBS DNA” value was no more than 0.2. As for RQPP, the “one-hybrid fitness for binding NBS DNA” value is no more than 0.2. Regarding FRKH, the “one-hybrid fitness for binding NBS DNA” value is no more than 0.2. Turning to HPCF, the “one-hybrid fitness for binding NBS DNA” value was no more than 0.2.

Regarding EGKW, the “one-hybrid fitness for binding NBS DNA” value is no more than 0.2. With RQWN, the “one-hybrid fitness for binding NBS DNA” value was no more than 0.2. As for RMFI, the figure is no more than 0.2; as for QMPC, no more than 0.2; as for PCIL, no more than 0.2.

As to CVYT, the “one-hybrid fitness for binding NBS DNA” value is no more than 0.2. As for DGSG, the “one-hybrid fitness for binding NBS DNA” value is no more than 0.2. Take CHSN: the “one-hybrid fitness for binding NBS DNA” value was no more than 0.2. Then GPTF, with no more than 0.2; and EAAW, with no more than 0.2. Turning to PSNY, the “one-hybrid fitness for binding NBS DNA” value was no more than 0.2. Consider TNIT, for which the “one-hybrid fitness for binding NBS DNA” value is no more than 0.2. With TLFI, the “one-hybrid fitness for binding NBS DNA” value is no more than 0.2. Take CGCT: the “one-hybrid fitness for binding NBS DNA” value is no more than 0.2.

In the case of KRQD, the “one-hybrid fitness for binding NBS DNA” value is no more than 0.2. As for NKRC, the figure is no more than 0.2. As for CNVF, the figure is no more than 0.2. Then NIAE, with no more than 0.2; and IDYT, with no more than 0.2. Take ITDC: the “one-hybrid fitness for binding NBS DNA” value was no more than 0.2. WANG: the “one-hybrid fitness for binding NBS DNA” value was no more than 0.2. Consider LMFC, for which the “one-hybrid fitness for binding NBS DNA” value is no more than 0.2. In the case of DAWG, the “one-hybrid fitness for binding NBS DNA” value was no more than 0.2. For the variant VRLL, the “one-hybrid fitness for binding NBS DNA” value was no more than 0.2. As for VGTS, the “one-hybrid fitness for binding NBS DNA” value is no more than 0.2. On to RRMP, for which the “one-hybrid fitness for binding NBS DNA” value was no more than 0.2.

As to KMLN, the “one-hybrid fitness for binding NBS DNA” value is no more than 0.2.

For the origin of these results see a collection of fitness landscapes (doi:10.1016/j.celrep.2020.107928).
